The assay deals with DMS 114. The assay is described as follows: NCI-60 one-dose screen, 48 h (100 = growth as untreated, 0 = no growth, -100 = all killed). The settings on record: 2.5 mM. On the procedure: Growth inhibition of the DMS 114 human tumor cell line is measured as a screen for anti-cancer activity. Cells are grown in 96 well plates and exposed to the test compound for 48 hours. Compounds are tested at a single concentration, which is 10^-5 M for most compounds. The reported endpoint is percent growth (GI% or GIPRCNT), where numbers from 0 - 100% represent growth inhibition, and numbers from -100% - 0 represent cell death. For example, a value of 40 represents 60% growth inhibition. A value of 0 means no net growth occurred over the course of the experiment. A value of -40 indicates 40% of cells at the beginning of the experiment died by the end of the experiment. A value of -100 means all cells are dead at the end of the experiment.
NCI-60 Human Tumor Cell Lines Screen was performed using the standard one-dose NCI protocol, which is described in more detail at https://dtp.cancer.gov/discovery_development/nci-60/default.htm.
Compounds with GIPRCNT values below 10 were considered active. Activity score was based on GIPRCNT using the following formula: […]
Score is 0 for GIPRCNT values of 100 or above, 50 for GIPRCNT values of 0, and 100 for GIPRCNT values of -100.

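Negative percent growth values reflect cell death: -40 means 40% of the cells present at the start died, and -100 means all died.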 For part of its entries the source gives two or more results. This list holds those alone. There may be further records. The screen tested this drug many times, at its own concentration, as given; one value stands for one run. Marks such as (2×) say how often a value occurs here.

For the compound `O=c1[nH]cc(F)c(=O)[nH]1`, the growth by setting is: (runs of 1991) 41.1, 39.2, -50, -5.8, 31, 24.3, 17, 22.6, -3.29, 34.1, 15.6, 21.2, 22.8%; (runs of 1992) -8.67, -10.9, 21.3, -6.63, 5.1, 21.2, 23.9, 28.7, 15.5, 13.5 (2×), 18.1 (2×), -1.97, 27.9, 17.6, 8.78, 19.9, 15.4 (3×), 99, 17.7 (2×), 14.1, 33.8, 7.54, 20.6, 3.23, 23.5 (2×), 24.6 (2×), 31.3, 28.1, 18.8, 2.77, 12.1, 2.26, 5.09, 18.7, -8.73, 14.4, -7.68, 19.8, -16.9, 5.66, 24.9, 25.4, 25.2, 11.3, -11.5, 10.8, 12, 12.5, 7.67, 6.61, 2.32, 8.35, 1.99, -21.1, 17.9, -3.9, 3.71, 9.36, 5.89, -4.05, -5.12, 25, 2.92, -1.4, 15.3, 16.2, -13.3, -4.58, 32.5, 33.2, 4.44, -6.33, 8.23, 19.4, -10.6, 0.0521, 45.6, 8.74, 27.3, 15.7%.

Source of the values: PubChem BioAssay AID1794743 (DTP/NCI, 2022).
